Among the data in PubChem BioAssay AID488969 (Vanderbilt High Throughput Screening Facility, 2010) are z-score values, retold here.

Over roughly 110,000 compounds, “z-score” has its median near -0.1; the highest 2% begin near 2. The list shows a part of the results. Active and inactive are the calls of the source.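 Rule for the calls: active = z-score in the third read window above 3 or below -3; inactive = the rest.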

This assay addresses Metabotropic glutamate receptor 8 (Rattus norvegicus) (UniProt P70579). In words: mGluR8 Gi/Go-coupled signaling modulation – cell-based, rat, thallium flux, HTS, primary screen (AID 488969). The following applies: HEK293 rat mGluR8, GIRK (G protein-gated inwardly rectifying potassium channel) thallium flux, FluoZin2; at 10 µM; stronger effect = higher value; submaximal glutamate (EC20) added with thallium.
Sequence of UniProt P70579 (P70579 whole entry, looked up): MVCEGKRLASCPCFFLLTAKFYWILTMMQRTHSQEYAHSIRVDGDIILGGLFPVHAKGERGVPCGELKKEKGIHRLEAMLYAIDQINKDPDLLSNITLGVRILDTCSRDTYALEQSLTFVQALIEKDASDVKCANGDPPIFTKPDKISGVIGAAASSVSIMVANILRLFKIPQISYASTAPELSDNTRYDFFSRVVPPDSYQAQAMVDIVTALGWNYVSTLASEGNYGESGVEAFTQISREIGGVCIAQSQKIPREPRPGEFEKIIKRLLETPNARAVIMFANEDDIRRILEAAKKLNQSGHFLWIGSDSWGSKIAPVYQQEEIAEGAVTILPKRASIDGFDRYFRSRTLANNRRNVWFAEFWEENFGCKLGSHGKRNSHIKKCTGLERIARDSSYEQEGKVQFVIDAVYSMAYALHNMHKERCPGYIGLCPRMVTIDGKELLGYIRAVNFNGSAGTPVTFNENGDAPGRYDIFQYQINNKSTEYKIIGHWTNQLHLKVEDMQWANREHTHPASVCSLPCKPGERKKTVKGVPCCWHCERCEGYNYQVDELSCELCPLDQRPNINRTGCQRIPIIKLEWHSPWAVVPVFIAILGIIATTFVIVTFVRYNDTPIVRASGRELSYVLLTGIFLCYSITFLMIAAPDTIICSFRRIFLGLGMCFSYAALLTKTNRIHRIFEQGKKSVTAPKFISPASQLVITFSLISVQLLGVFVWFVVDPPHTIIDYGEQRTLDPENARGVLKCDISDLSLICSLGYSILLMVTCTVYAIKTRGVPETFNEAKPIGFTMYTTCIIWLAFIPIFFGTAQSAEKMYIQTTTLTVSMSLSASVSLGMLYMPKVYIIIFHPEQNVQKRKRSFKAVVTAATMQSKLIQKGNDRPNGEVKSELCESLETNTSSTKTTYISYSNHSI
The compound `COc1cc(C2CC(=O)NC3=C2C(=O)CC(C)(C)C3)ccc1O` (stereo not given) displayed a z-score of 0.0441.
`CC(=O)Nc1ccc(S(=O)(=O)N2CCCCC2c2cccnc2)cc1` (stereo not given): the z-score was -0.375.
`CC(=O)C1=C(C)N(Cc2ccco2)C(=O)C1(NC(=O)C1CCCCC1)C(F)(F)F` (stereo not given): the z-score is -0.0258.
`COc1ccc(CSc2nncn2N)cc1[N+](=O)[O-]` had a z-score of 0.116.
Compound `CCOc1ccccc1NC(=O)c1ccc(F)c(S(=O)(=O)N2CCC3(CC2)OCCO3)c1` displayed a z-score of 2.77.
`C/C(=N/NC(=O)Nc1ccccc1)c1ccc(C)cc1` registered a z-score of -0.14.
Next, `CCc1ccc(-c2nc(CSCC(=O)NCCCN3CCCC3=O)c(C)o2)cc1`: -0.348; `CCN(CC)S(=O)(=O)c1ccc2nc(CSc3nnnn3-c3ccc(O)cc3)[nH]c2c1`: -0.372; `CC1CCc2nc(NC(=O)CSc3nc4ccccc4o3)sc2C1` (stereo not given): 0.586.
Regarding `COC(=O)c1ccccc1NC(=O)CN1CCC(n2nnc3cc(F)ccc32)CC1`, the z-score is -0.43.
For `CCn1c(-c2cc(-c3ccc(OC(C)C)cc3)nc3ccccc23)n[nH]c1=S`, the z-score was 1.25.
`C=COC(=O)CSc1snc(SCC(=O)OC)c1C#N` displayed a z-score of -0.893.
With `O=c1[nH]c2ccc(N=Cc3c(O)ccc4cc(Br)ccc34)cc2[nH]1`, the z-score was -0.755.
On to `CCn1c(=S)[nH]c2cc(S(=O)(=O)N3CCCCC3)ccc21`, for which the z-score was 0.428.
With `O=C(Nc1ccc(N2CCN(Cc3ccccc3Cl)CC2)cc1)c1cccnc1`, the z-score stood at 0.311.
In turn, `COc1cc(OC)c2c(c1)C(=O)OC2` yielded a z-score of -0.062.
The compound `CC(=O)Nc1ccc(NC(=O)CSc2ccccn2)cc1` gave a z-score of -0.239.
Compound `N#CCCNC(=O)CCN1CCCCC1` displayed a z-score of -0.17.
For the compound `CCCCOC(=O)C(NC(=O)c1ccccc1)=C(C)C`, the z-score was -0.559.
As for `COc1ccc(-c2cc(C(=O)NCCc3ccccc3)no2)cc1OC`, the z-score worked out at 1.12.
For the compound `COc1ccccc1N1CCN(/N=C/c2cc(OC)c(OC)c(OC)c2)CC1`, the z-score is -0.0785.
With `[O-]/[N+](=C\c1ccncc1)c1ccccc1`, the z-score is -0.31.
Compound `Cc1ccccc1-n1c(SCc2c(C)noc2C)nnc1-c1cccnc1` had a z-score of -0.106.
In turn, `CC(=O)OCC1OC(Sc2cccc3cccnc23)C(OC(C)=O)C(OC(C)=O)C1OC(C)=O` (stereo not given) gave a z-score of -0.0154.
Take `O=C(NC(=S)N1CCCc2ccccc21)c1ccc(Cl)cc1`: the z-score is active: 15.6.
`O=C(COc1ccccc1[N+](=O)[O-])NCc1cccnc1` displayed a z-score of -0.288.
Then `CCCCn1nnnc1SCC(=O)NCc1ccccc1`, with -0.156; and `Cc1ccc(NCc2cccnc2)cc1`, with -0.598.
Next, `Cc1cc(C)c2[nH]c(=O)c(CN(Cc3cccs3)C(=S)NCc3ccco3)cc2c1`: -0.141.
Turning to `CCN1C(=O)/C(=C\N2CCN(c3ccccc3)CC2)SC1=S`, the z-score amounted to 0.0106.
Regarding `COc1ccccc1C(=O)Nc1ccc(Oc2ncnc3sc(-c4ccccc4)cc23)cc1`, the z-score is -0.975.
`CN(C)CCCN(C(=O)c1ccc2c(c1)CCCC2)c1nc2ccc(F)cc2s1` came in with a z-score of 0.35.
`CCOC(=O)c1[nH]c2c(c1C)C(=O)CC(c1ccc(OC)c(OC)c1)C2` (stereo not given) registered a z-score of -0.228.
Regarding `CCN1CCN(C(=O)c2c(-c3c(F)cccc3Cl)noc2C)CC1`, the z-score is -0.521.
In turn, `Cc1sc(NC(=O)C2CCCO2)c(C(N)=O)c1C` (stereo not given) returned a z-score of 0.183.
In turn, `COc1ccc(Cl)cc1NC(=O)c1c(-c2ccccc2)noc1C` had a z-score of 0.0513.
As to `CC(=O)c1cccc(NC(=O)N2CCCC2C(=O)Nc2cc(C)ccc2C)c1` (stereo not given), the z-score was -0.656.
The compound `O=C(OCCN1C(=O)c2cccc3c(N4CCOCC4)ccc(c23)C1=O)c1ccc(Cl)cc1` showed a z-score of -0.758.
Take `O=C(Nc1ccc(N2CCOCC2)c(Cl)c1)c1ccco1`: the z-score is 1.5.
Take `Cc1ccc(C)c(N(CC(=O)Nc2cc(Cl)ccc2Oc2ccccc2)S(C)(=O)=O)c1`: the z-score was -0.202.
Consider `CCCN1CNC(=S)N(c2cc(C)ccc2C)C1`, for which the z-score came to 0.168.
For `CCC(=O)NC(=S)Nc1ccccc1F`, the z-score was found to be 0.199.
`C=CCc1c(C)nc(SC(C)C)[nH]c1=O` gave a z-score of -0.459.
Compound `COC(=O)CSc1nnc(CNS(=O)(=O)c2ccc(C)cc2)n1C` registered a z-score of 0.716.
The compound `c1ccc(-c2csc(Nc3ncccn3)n2)cc1` had a z-score of -0.623.
As to `N#Cc1nc(-c2ccccc2F)oc1NCCc1ccccc1`, the z-score was -0.937.
Next, `COc1ccc(OCC(=O)O/N=C(\N)Cc2ccc(Cl)cc2)cc1`: -0.139; `COC(=O)c1cc(NC2c3ncccc3C(=O)N2Cc2ccccc2)cc(C(=O)OC)c1` (stereo not given): -0.697; `Cc1c(NC(=S)NC(=O)C(c2ccccc2)c2ccccc2)cccc1C(=O)O`: -0.0288.
In the case of `COc1ccc(Cl)cc1NC(=O)CS(=O)(=O)c1cccc2nsnc12`, the z-score was 0.107.
Next, `COc1cc(-c2nnn(CC(=O)N3CCOCC3)n2)cc(OC)c1OC`: -0.0273; `COC(=O)C1=C(C)N=C2SC(C)C(=O)N2C1c1ccc(C(=O)OC)cc1` (stereo not given): 0.45.
For `NC(=O)c1c(Nc2nc3c(F)cccc3s2)sc2c1CCCC2`, the z-score was -0.111.
In turn, `CC(=O)c1cc(C)ccc1OC(=O)c1cccc2nc(C)oc12` yielded a z-score of 0.657.
Next, `CCOCCCNC(=O)c1c[nH]c2ccc(C)cc2c1=O`: -0.144; `CSc1oc(-c2ccc(F)cc2)nc1S(=O)(=O)c1ccccc1`: 0.521.
Next, `O=C(NCC(c1cccs1)N1CCOCC1)c1cc([N+](=O)[O-])ccc1Cl` (stereo not given): 0.0103; `COc1ccc(C(=O)Sc2ccc(C)cc2)cc1OC`: 0.102.
`CCOc1ccc(Nc2nc(C)cc(C)c2C#N)cc1` came in with a z-score of 0.266.
`Cc1ccc(NC2=NC(c3ccccc3)n3c(nc(C)cc3=O)N2)cc1` (stereo not given) showed a z-score of -0.124.
Turning to `O=C(CCN1C(=O)CSC1=O)Nc1ccccc1`, the z-score is 0.165.
`Cc1ccc(C2CC(C(F)(F)F)n3nc(C(=O)NCc4ccco4)cc3N2)cc1` (stereo not given) came in with a z-score of 0.0979.
Consider `CCOc1ccc(CNC(=O)c2ccc(Sc3ccc(C)cc3)c(NC(C)=O)c2)cc1OC`, for which the z-score was -0.0676.
`O=c1nc2n(c3ccc(Br)cc13)CCS2` yielded a z-score of 0.0624.
Take `COc1ccc(-c2csc(NC(=O)CSc3nc(C)cs3)n2)cc1`: the z-score is -0.238.
On to `COCCCN1C(=O)C(=O)/C(=C(/O)c2ccc(C)cc2)C1c1ccccc1` (stereo not given), for which the z-score was active: -4.28.
`COc1ccccc1NC(=O)NC1(C(=O)N2CCC(O)CC2)CCCCC1` came in with a z-score of -0.16.
`CCOC(=O)Cc1csc(Nc2c(C)n(C)n(-c3ccccc3)c2=O)n1` displayed a z-score of 0.934.
Next, `COc1ccc(C(=O)/C=C/c2ccc(N3CCCCC3)c([N+](=O)[O-])c2)cc1`: -0.353; `CCn1c(SCC(=O)c2ccccc2)nnc1-c1cccs1`: -0.252.
Consider `Cn1cnc2c(N3CCCCC3)nccc21`, for which the z-score was -0.0619.
With `CCOc1ccc(C(=O)NCC(=O)OCc2c(C)noc2C)cc1`, the z-score is 1.1.
In the case of `C/C(=N\NC(=O)c1ccccc1)c1ccc(C)c([N+](=O)[O-])c1`, the z-score is -0.308.
Next, `O=C(c1ccsc1)N1CCN(C(=O)c2cccs2)CC1`: -0.208.
As to `CCC(C)(C)n1nnnc1C(C(C)C)N1CCSCC1` (stereo not given), the z-score was found to be 0.805.
In turn, `COc1ccc(S(=O)(=O)NCc2cn3c(C)csc3n2)cc1F` returned a z-score of -0.0976.
`O=C(OCCN1C(=O)CCC1=O)c1ccc(S(=O)(=O)N2CCCCC2)cc1`: the z-score was -1.06.
Compound `Cc1ccccc1NC(=O)c1ccccc1O` registered a z-score of -0.396.
Then `CC12CCC(C(=O)N3CCN(Cc4ccccc4)CC3)(OC1=O)C2(C)C` (stereo not given), with -0.0844; and `Cc1cc(NC(=O)c2ccoc2C)no1`, with -0.105.
`O=C(O)c1ccc(-c2cccc(Cl)c2)o1` gave a z-score of -0.269.
With `CC(C(=O)OCn1nnc2ccccc2c1=O)N1C(=O)c2ccccc2C1=O` (stereo not given), the z-score was -0.219.
`COc1ccccc1NC(=S)NC(=O)C(C)(C)C` came in with a z-score of -0.494.
In turn, `COC(=O)c1ccc(O)c(Sc2cc(C(=O)OC)ccc2O)c1` showed a z-score of 0.542.
Compound `CC(C)=CC(=O)Nc1nnc(-c2ccccc2)s1` showed a z-score of -0.169.
Turning to `CCC(OC(=O)C1=Cc2ccccc2OC1)C(=O)NC1CCCC1` (stereo not given), the z-score was -0.169.
The compound `Cc1cccc(NC(=O)CSc2ccc(C(N)=O)cc2[N+](=O)[O-])c1C` registered a z-score of -0.0585.
`Cc1ccc(-c2noc(C3CCCN(S(=O)(=O)c4ccc5ccccc5c4)C3)n2)o1` (stereo not given) showed a z-score of -0.536.
With `CC1Cc2ccccc2N1C(=O)CSc1nnnn1C` (stereo not given), the z-score is -0.0139.
Then `CCOC(=O)c1cnn(-c2ccccc2)c1-n1cccc1`, with -0.242.
In turn, `Cc1ccc(NC(=O)CN(C)C(=O)CSc2nc3ccccc3o2)cc1` had a z-score of 0.0381.
Compound `COC(=O)c1nc(-c2ccccc2)oc1N(C)C` gave a z-score of -0.306.
Then `O=C(CSc1nc(-c2ccccc2)c(-c2ccccc2)[nH]1)NCc1ccco1`, with -0.317.
Then `Cc1ccc2nc(/N=C(\N)NC(=O)N3c4ccccc4Sc4ccccc43)nc(C)c2c1`, with -0.291.
`Cc1nn(C)cc1C(C(=O)NC1CCCCC1)N(C(=O)Cn1nnc2ccccc21)c1ccc(F)cc1` (stereo not given) had a z-score of 0.0895.
Next, `N[C@@H](Cc1ccccc1)c1nnc(SCc2ccccc2F)o1`: 0.274.
Regarding `S=c1[nH]nc(-c2ccc3ccccc3n2)n1-c1ccccc1`, the z-score amounted to 0.119.
For the compound `Cc1cc2oc(C(=O)NCc3ccncc3)c(C)c2cc1C`, the z-score worked out at 0.601.
In turn, `CC(C)C(=O)Nc1c2c(nc3c1CCC3)CCCC2` returned a z-score of -0.105.
`CCC(=O)NCCCCNC(=O)CC`: the z-score is 0.217.
For the compound `COC(=O)Cc1c(C)c2ccc(O)c(CN3CCCC(C)C3)c2oc1=O` (stereo not given), the z-score was -0.199.
`COC(=O)C(CCSC)NC(=O)Cn1ncc2c(=O)oc3ccccc3c21` (stereo not given): the z-score is -0.652.
In the case of `CCOCCCN1CN(Cc2ccccc2)CNC1=S`, the z-score was 0.817.
In turn, `COC(=O)[C@@H](NC(=O)Nc1ccc2c(c1)OCCO2)C(C)C` had a z-score of 0.876.
As to `Cn1c(CSCc2ccc(Cl)c(Cl)c2)nnc1SCC(=O)Nc1nccs1`, the z-score was -0.345.
`Cc1ccc(NC(=O)CC2C(=O)N(Cc3ccccc3)C(=S)N2NC(=O)c2cccc(F)c2)c(C)c1` (stereo not given): the z-score is -0.362.
`COC(=O)c1cc(OC)c(OC)cc1NC(=O)C(C)Sc1ccc(C)cc1` (stereo not given) registered a z-score of -0.208.
`O=C1c2ccccc2CCC12N=NCC2c1ccc(Br)cc1` (stereo not given): the z-score is -0.528.
Compound `CCCCCCN=CC1=C(O)C(C(=O)OC)C(C)(C)CC1=O` (stereo not given) came in with a z-score of 1.67.
In the case of `Cc1cc(C(=O)Cn2cncn2)c(C)n1CCc1ccc(F)cc1`, the z-score was determined as 0.332.
In turn, `O=C(CNC(=O)c1ccccn1)N/N=C/c1ccccc1` showed a z-score of 0.226.
The compound `Cc1cc2nn(-c3cccc4ccccc34)nc2cc1N` registered a z-score of -0.113.
Turning to `Cc1ccc(C)c(OCC(=O)O/N=C(\N)c2ccccn2)c1`, the z-score was -0.331.
Next, `C=CCN1C(=NC(=O)CCC)SC2CS(=O)(=O)CC21` (stereo not given): -0.313.
Take `COc1ccc(N2C(=O)CC(SCC(=O)O)C2=O)cc1` (stereo not given): the z-score was -0.0131.
